{
  "source": "PubChem BioAssay AID445",
  "about": "(National Center for Advancing Translational Sciences (NCATS), 2006)",
  "note": "The whole screen tested about 110,000 compounds, of which about 40 (0.04%) were called active. The shares of active, inactive and inconclusive entries below differ from those in the screen. Calls follow the shape of the dose curve; as a rule, active = well fitted curve in the direction sought with a large enough effect in the signal ratio (not every such curve was filed as active); inconclusive = small, poorly fitted or top-dose-only effect, or a change in a side signal; inactive = flat fitted curve, though single readings scatter; the % refers to the signal ratio. A potency beside an inconclusive call is a rough fit, not a confirmed value. Potency is read from the fitted curve at half-maximal effect.",
  "data": [
    {"assay": "IkB Signaling;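 as to IkBa stabilization activation: 0% = basal untreated cells and 100% = reference inhibitor full response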", "details": "ABC-DLBCL IkBa-CBG/CBR dual luciferase ratio (green luciferase fused to IkBa over red control in OCI-Ly3 lymphoma cells), 4 h; IkBa stabilization activation: at 57.1 µM (top of the series), scaled: untreated 0%, proteasome inhibitor 100% unless noted", "how_it_was_run": "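Luminescence ratio of IκBα-fused green versus native red beetle luciferase in OCI-Ly3 cells, 4 h post-doxycycline with compound; red signal alone, scaled from basal (0%) to zero light (-100%), flagged nonspecific or cytotoxic effects.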", "values": [
      {"smiles": "CCOC(=O)CSc1nc2ccc(NC(=O)c3cccc(F)c3)cc2s1", "IkBa stabilization activation": "inconclusive: 2.02% [signal inhibitor]"},
      {"smiles": "O=c1c(NCc2cccs2)nccn1-c1ccc(F)cc1", "Potency": "inconclusive: 31.6 µM [signal inhibitor, single point]"},
      {"smiles": "COc1cccc(NC(=O)CN(CCc2ccccc2)S(=O)(=O)c2ccc(Cl)cc2)c1", "IkBa stabilization activation": "inconclusive: 7.79% [signal inhibitor]"},
      {"smiles": "Cc1nc2ccccc2n1CCc1nc2c3ccccc3nc(SCc3ccc(C#N)cc3)n2n1", "IkBa stabilization activation": "inactive: -2.59%"},
      {"smiles": "Cc1cccc(-c2nc3c4ccccc4nc(NCCc4ccccc4)n3n2)c1", "IkBa stabilization activation": "inactive: -0.163%"},
      {"smiles": "CCOc1ccc(NS(=O)(=O)c2ccc3[nH]c4c(c3c2)CCCCC4)cc1", "IkBa stabilization activation": "inconclusive: -4.8% [signal inhibitor]"},
      {"smiles": "O=C(COCc1cc(-c2ccc(F)cc2)on1)Nc1cc(F)ccc1F", "IkBa stabilization activation": "inconclusive: -0.504% [signal inhibitor]"},
      {"smiles": "CCOc1ccccc1NS(=O)(=O)c1ccc2c(c1)oc(=O)n2C", "IkBa stabilization activation": "inconclusive: -0.00425% [signal inhibitor]"},
      {"smiles": "CCc1cc2c(cc3c(=O)n(CCCC(=O)NCc4cccc(Cl)c4)ncn32)s1", "IkBa stabilization activation": "inconclusive: 0.0424% [signal inhibitor]"},
      {"smiles": "COc1ccc(NC(=O)c2oc3ccccc3c2NC(=O)Cc2coc3c(C)c(C)ccc23)cc1", "IkBa stabilization activation": "inconclusive: 6.5% [signal inhibitor]"},
      {"smiles": "O=C(Nc1ncc(Cc2ccccc2)s1)C1CCCO1", "note": "(stereo not given)", "Potency": "inconclusive: 15.8 µM [signal inhibitor, partial curve]"},
      {"smiles": "CCc1ccc(NC(=O)Cn2ccn(-c3ccc(C)c(C)c3)c(=O)c2=O)cc1", "IkBa stabilization activation": "inactive: -2.15%"},
      {"smiles": "CN1CCN(Cc2cc(COCc3ccccc3)c3cccnc3c2O)CC1", "IkBa stabilization activation": "inactive: 6.44%"},
      {"smiles": "COc1ccc(OC)c(CCNC(=O)CS(=O)(=O)Cc2nc(-c3ccccc3C)oc2C)c1", "IkBa stabilization activation": "inconclusive: 2.98% [signal inhibitor]"},
      {"smiles": "O=C(CSc1n[nH]c(-c2ccc(F)cc2)n1)NCCc1ccccc1", "IkBa stabilization activation": "inconclusive: 3.7% [signal inhibitor]"},
      {"smiles": "O=c1c(-c2cc(F)cc(F)c2)nc2cnc(Oc3ccccc3)nc2n1C1CC1", "IkBa stabilization activation": "inactive: 1.61% [at 11.4 µM, scaled: untreated 0%, proteasome inhibitor 100%]"},
      {"smiles": "O=C(c1c(Cl)cccc1Cl)N1CCN(c2ccccn2)CC1", "IkBa stabilization activation": "inactive: 0.0467%"},
      {"smiles": "COc1cccc(NC(=O)Cn2cc(C(=O)c3ccc(C)cc3)c(=O)c3cc(OC)ccc32)c1", "IkBa stabilization activation": "inconclusive: 7.82% [signal inhibitor]"},
      {"smiles": "CN(C)c1ccc(-c2cncnc2NCc2cccs2)cc1", "IkBa stabilization activation": "inactive: -1.24% [at 11.4 µM, scaled: untreated 0%, proteasome inhibitor 100%]"},
      {"smiles": "CCOC(=O)c1c(Nc2ccc(OC)cc2)nnc(-c2ccccc2)c1-c1ccccc1", "IkBa stabilization activation": "inconclusive: 7.98% [signal inhibitor]"},
      {"smiles": "CCOc1ccc(NC(=O)COc2ccc(S(=O)(=O)NC3CCCCC3)cc2)cc1", "IkBa stabilization activation": "inconclusive: 12.4% [signal inhibitor]"},
      {"smiles": "COc1ccc(-c2csc(=Nc3ccccc3)n2CCO)cc1F", "IkBa stabilization activation": "inconclusive: 3.11% [signal inhibitor]"},
      {"smiles": "Cc1cccc(-c2nc3scc(CCNS(=O)(=O)c4ccc5c(c4)OCCO5)n3n2)c1", "IkBa stabilization activation": "inactive: -1.21%"},
      {"smiles": "CCOc1ccc(CNC(=O)Cc2ccc(NC(=O)N3CCSc4ncccc43)cc2)cc1", "IkBa stabilization activation": "inconclusive: -0.37% [signal inhibitor]"},
      {"smiles": "Cn1c(SCc2ccc(C#N)cc2Cl)nc2ccccc21", "IkBa stabilization activation": "inactive: -3.46%"},
      {"smiles": "Cc1ccc(Cl)cc1Nc1nn2c(=O)c3ccc(C(=O)NCc4ccc(F)cc4)cc3nc2s1", "IkBa stabilization activation": "inconclusive: 15.5% [signal inhibitor]"},
      {"smiles": "COc1ccc(Nc2c(-c3cccc(O)c3)nc3cnccn23)cc1", "IkBa stabilization activation": "inconclusive: -0.531% [signal inhibitor]"},
      {"smiles": "CCOC(=O)N1CCc2c(sc3c2c(=O)n(-c2ccc(Cl)cc2)c(=O)n3CC(C)C)C1", "IkBa stabilization activation": "inconclusive: 3.77% [signal inhibitor]"},
      {"smiles": "CCOC(=O)c1c(C)[nH]c(C)c1S(=O)(=O)NCC(=O)NCc1cccc(C)c1", "IkBa stabilization activation": "inactive: 0.835%"},
      {"smiles": "C/C(=C\\c1ccco1)C1Nc2cccc3cccc(c23)N1", "Potency": "inconclusive: 3.98 µM [rising, partial curve]"},
      {"smiles": "Cc1ccc(Cn2ccc(NC(=O)c3c(-c4ccccc4Cl)noc3C)n2)cc1", "IkBa stabilization activation": "inconclusive: 2.63% [signal inhibitor]"},
      {"smiles": "COc1cc(C(=O)NCC(c2ccc(Cl)cc2)N2CCOCC2)cc(OC)c1OC", "note": "(stereo not given)", "IkBa stabilization activation": "inconclusive: 1.4% [signal inhibitor]"},
      {"smiles": "COc1ccc(NC(=O)Nc2ccc(C)cc2OC(F)F)cc1OC", "IkBa stabilization activation": "inconclusive: 2.42% [signal inhibitor]"},
      {"smiles": "N#Cc1c(NC(=O)CSC2=NCCS2)sc2c1CCCC2", "IkBa stabilization activation": "inactive: 12.4%"},
      {"smiles": "CC(=O)c1ccc(NC(=O)CSc2nc(=O)n(Cc3ccncc3)c3c2CCC3)cc1", "IkBa stabilization activation": "inactive: -0.175%"},
      {"smiles": "O=C(Cn1c(=O)nc(-c2ccccc2)c2ccccc21)NCc1ccccc1Cl", "IkBa stabilization activation": "inconclusive: -0.0928% [signal inhibitor]"},
      {"smiles": "COc1cc(NC(=O)CCn2nc(C)c(S(=O)(=O)N3CCCCC3)c2C)cc(OC)c1OC", "IkBa stabilization activation": "inconclusive: 2.88% [signal inhibitor]"},
      {"smiles": "CCCC(=O)N1CCN(c2ccc(NC(=O)c3cc4ccccc4o3)cc2Cl)CC1", "IkBa stabilization activation": "inconclusive: -3.73% [signal inhibitor]"},
      {"smiles": "c1ccc2c(c1)CCN(c1nc3cc4c(cc3s1)OCCO4)C2", "Potency": "inconclusive: 31.6 µM [signal inhibitor, single point]"},
      {"smiles": "COc1ccc(Cl)cc1NC(=O)c1c(NCc2cccnc2)sc2c1CCC(C)C2", "note": "(stereo not given)", "IkBa stabilization activation": "inconclusive: 0.386% [signal inhibitor]"},
      {"smiles": "Cc1ccc(Cl)cc1NC(=O)CCCn1c(=O)c2cccn2c2cccnc21", "IkBa stabilization activation": "inconclusive: 0.55% [signal inhibitor]"},
      {"smiles": "COc1ccccc1NC(=O)C1=C(C)Nc2c(C(=O)Nc3cccc(C)c3)cnn2C1c1ccccc1Cl", "note": "(stereo not given)", "IkBa stabilization activation": "inconclusive: 3.42% [signal inhibitor]"},
      {"smiles": "CCN1CCN(C(c2ccc(SC)cc2)c2c(O)cc(C)n(CCOC)c2=O)CC1", "note": "(stereo not given)", "IkBa stabilization activation": "inconclusive: 3.38% [signal inhibitor]"},
      {"smiles": "COc1ccc(CNC(=O)CS(=O)Cc2nc(-c3cccc(C)c3)oc2C)cc1", "note": "(stereo not given)", "IkBa stabilization activation": "inconclusive: -0.385% [signal inhibitor]"},
      {"smiles": "COc1cc(CNCCSc2nnnn2C)cc(Cl)c1OCc1ccccc1", "IkBa stabilization activation": "inconclusive: 3.24% [signal inhibitor]"},
      {"smiles": "N#CC(C#N)=c1ccc2c(c1)N1C3=C(CCCC3)CC3CCCCC31N=2", "note": "(stereo not given)", "IkBa stabilization activation": "inactive: -3.13%"},
      {"smiles": "O=C(CC1(O)C(=O)N(Cc2ccccc2Cl)c2ccccc21)c1ccco1", "note": "(stereo not given)", "IkBa stabilization activation": "inactive: 2.91%"},
      {"smiles": "COc1cccc(NC(=O)Nc2nnc(N3CCCCC3C)s2)c1", "note": "(stereo not given)", "IkBa stabilization activation": "inconclusive: 7.98% [signal inhibitor]"},
      {"smiles": "COC(=O)c1ccc(OC(=O)C2CC(=O)N(c3ccc(C)cc3C)C2)cc1", "note": "(stereo not given)", "IkBa stabilization activation": "inactive: 2.29%"},
      {"smiles": "CCCCNc1nc2ccccc2c2nc(-c3ccccc3)nn12", "IkBa stabilization activation": "inactive: 2.51%"},
      {"smiles": "CCCCN(CC)CCNC(=O)c1cc2c(=O)n(CC)c3ccccc3c2s1", "IkBa stabilization activation": "inconclusive: -0.187% [signal inhibitor]"},
      {"smiles": "COc1cc2c(cc1NC(=O)c1ccco1)CCCC2", "IkBa stabilization activation": "inactive: -1.89%"},
      {"smiles": "CC(C)(Oc1ccc(Br)cc1)C(=O)Nc1cc(-c2nc3ccccc3[nH]2)ccc1Cl", "IkBa stabilization activation": "inconclusive: 0.378% [signal inhibitor]"},
      {"smiles": "O=C(CN1N=C(c2ccc(Cl)cc2)CCC1=O)NCCc1ccccc1", "IkBa stabilization activation": "inconclusive: -3.91% [signal inhibitor]"},
      {"smiles": "CCc1c(C)nc2nncn2c1NCc1ccc(Cl)cc1", "IkBa stabilization activation": "inconclusive: -0.129% [signal inhibitor]"},
      {"smiles": "CCOc1ccc(NC(=O)c2oc3ccccc3c2NC(=O)c2ccc(OC)cc2OC)cc1", "IkBa stabilization activation": "inconclusive: 1.85% [signal inhibitor]"},
      {"smiles": "CCCn1c(NC(=O)c2cccc(S(=O)(=O)N3CCCC3)c2)nc2ccccc21", "IkBa stabilization activation": "inconclusive: -7.87% [signal inhibitor]"},
      {"smiles": "O=C(c1cccs1)N(Cc1nc2sc3c(c2c(=O)[nH]1)CCCC3)C1CCCC1", "IkBa stabilization activation": "inconclusive: 1.06% [signal inhibitor]"},
      {"smiles": "c1ccc(CCn2nnnc2C(c2cccnc2)N2CCN(c3ccccc3)CC2)cc1", "note": "(stereo not given)", "IkBa stabilization activation": "inactive: 2.44%"},
      {"smiles": "O=C(NCc1cccnc1)C1CCCN(S(=O)(=O)c2ccc(Br)cc2)C1", "note": "(stereo not given)", "IkBa stabilization activation": "inconclusive: 3.4% [signal inhibitor]"},
      {"smiles": "CCCCn1c(CN2CCOCC2)nc2c1c(=O)n(C)c(=O)n2C", "Potency": "inconclusive: 6.31 µM [falling, single point]"},
      {"smiles": "O=C1CN(C(=O)COc2ccc(Cl)cc2Cl)C(c2ccccc2)c2cc(F)ccc2N1", "note": "(stereo not given)", "IkBa stabilization activation": "inconclusive: 3.17% [signal inhibitor]"},
      {"smiles": "CCC(=O)Nc1cccc(NC(=O)CSc2nnnn2Cc2ccccc2)c1", "IkBa stabilization activation": "inconclusive: 4.97% [signal inhibitor]"},
      {"smiles": "COc1cc(S(=O)(=O)N2CCCCCC2)c(OC)cc1Br", "IkBa stabilization activation": "inactive: -0.385%"},
      {"smiles": "CCOc1ccc(CCNC(=O)c2nn(C)c3c2CSc2ccccc2-3)cc1", "IkBa stabilization activation": "inconclusive: 0.437% [signal inhibitor]"},
      {"smiles": "Cc1cccc(C(=O)NNc2ncnc3c2cnn3-c2ccc(C)cc2C)c1", "IkBa stabilization activation": "inconclusive: 1.76% [signal inhibitor]"},
      {"smiles": "CCOc1ccccc1CNC(=O)CCCn1ccc2cc(S(=O)(=O)N3CCCC3)ccc21", "IkBa stabilization activation": "inconclusive: 3.65% [signal inhibitor]"},
      {"smiles": "Cc1ccc(Cn2cnc3nc4c(cc3c2=O)CC(C)CC4)cc1", "note": "(stereo not given)", "IkBa stabilization activation": "inconclusive: 3.2% [signal inhibitor]"},
      {"smiles": "COc1cccc(C(=O)Nc2nnc(S(=O)(=O)N3CCCC3)s2)c1", "IkBa stabilization activation": "inconclusive: 4.7% [signal inhibitor]"},
      {"smiles": "CC(C)c1ccc(S(=O)(=O)c2cnc(SCC(=O)Nc3ccc4c(c3)OCCO4)[nH]c2=O)cc1", "IkBa stabilization activation": "inconclusive: 3.01% [signal inhibitor]"}
    ]}
  ]
}
